# Measured values from PubChem BioAssay AID686978 (National Center for Advancing Translational Sciences (NCATS), 2013).
# The campaign covered roughly 420,000 compounds. About 64,000 (15%) were called active. Inconclusive results, whose numbers are uncertain, are shown with a selection of clear calls. The call rests on the fitted dose curve; in most records, active means well fitted inhibition curve with a large enough effect; inconclusive means small, poorly fitted or top-dose-only effect; inactive means flat fitted curve, though single readings scatter. Potencies of inconclusive entries are left out as doubtful fits.
# Experiment: qHTS for Inhibitors of human tyrosyl-DNA phosphodiesterase 1 (TDP1): qHTS in cells in absence of CPT; further: nearly all actives have a fitted effect of over 55% in size
# Settings: DT40 Tdp1-/- hTDP1 cells, no CPT, ATP luminescence, 48 h; activity change, negative = growth inhibition: at 46.2 µM (top of the series) unless noted
# Summary of the method: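 Chicken DT40 Tdp1-/- cells complemented with human TDP1, screened without camptothecin (DMSO vehicle only), 400 cells/well. Compounds pin-transferred, cells incubated at 37 °C for at least 48 hr. Growth read as ATP-dependent luminescence (CellTiter-Glo, 30 min at RT).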
# On the % scale 0 is the no-effect control and ±100 the full control effect; potency means the concentration at half of the fitted maximal effect; tags describe the fitted curve by direction and shape.
SMILES,Potency,"activity change, negative = growth inhibition"
COc1cccc(-c2cc(C(=O)N3CCN(S(=O)(=O)c4ccccc4)CC3)[nH]n2)c1,"inconclusive [inhibitor, single point]",
COc1ccccc1C(CNC(=O)C1CCN(C(=O)Nc2ccccc2)CC1)N1CCCC1 (stereo not drawn),inactive,
CN(C(=S)NC(=O)c1ccc(F)cc1)C1CCCCC1,"inconclusive [inhibitor, single point]",
CC(=O)Nc1ccc(Nc2nc(-c3c(C)nc4ccccn34)cs2)cc1,active: 0.82 µM,
c1ccc(CSc2ncn[nH]2)nc1,inactive,
CCOc1ccc(S(=O)(=O)Nc2cccc(C(=O)NCC(c3ccc(OC)cc3)N3CCOCC3)c2)cc1 (stereo not drawn),inactive,
CCOc1ccc(NC(=O)COC(=O)c2ccc3c(c2)OCCO3)cc1,inactive,
CCOc1cc(C(=O)NC2CCCCCCC2)cc(OCC)c1OCC,"inconclusive [inhibitor, single point]",
CC(C)CCNc1nc2c(-c3ccccc3)nnn2c2ccccc12,"inconclusive [inhibitor, single point]",
CCOC(=O)/C(C#N)=C\c1ccc(CC)s1,inactive,
O=C(Oc1ccc2c(c1)O/C(=C\c1ccncc1)C2=O)c1ccccc1,"inconclusive [inhibitor, single point]",
Cc1cccc(OCCn2c(=S)[nH]c3ccccc32)c1,"inconclusive [inhibitor, single point]",
CCCn1cnnc1CNC(=O)C1CCC(=O)N(CCc2ccc(OC)cc2)C1 (stereo not drawn),inactive,
CC(C)=NOCC(=O)Nn1c(COc2ccccc2)nc2ccccc2c1=O,inactive,
CCOCCCn1c(=N)c(C(=O)NCc2ccc3c(c2)OCO3)cc2c(=O)n3cccc(C)c3nc21,"inconclusive [inhibitor, single point]",
Cc1ccc(C(=O)CSc2nc3cc(C(=O)NC4CCCC4)ccc3c(=O)n2CC2CCCO2)c(C)c1 (stereo not drawn),"inconclusive [inhibitor, partial curve, poor fit]",
CC(=O)NCc1ccc(S(=O)(=O)NC2CCN(Cc3ccccc3)CC2)cc1,inactive,
Cn1nc(C(C)(C)C)cc1NC(=O)Nc1cc(Cl)cc(Cl)c1,"inconclusive [inhibitor, single point]",
Cc1ccc(-c2nnc(CCC(=O)N(C)Cc3nccs3)o2)s1,active: 20.6 µM,
Oc1ccc(OCc2ccccc2)cc1,"inconclusive [inhibitor, partial curve, poor fit]",
Cc1ccc(S(=O)(=O)/N=C2\C=C(NS(=O)(=O)c3ccccc3)C(=O)c3ccccc32)cc1,active: 25.9 µM,
COC(=O)CCC(=O)OC1(C)C(=O)C2=CN(C3CCCC3)C(c3ccc(OC)cc3)=CC2=C(Br)C1=O (stereo not drawn),"inconclusive [inhibitor, single point]",
Cn1nc(C(C)(C)C)cc1C(=O)NNC(=O)c1ccccc1Cl,"inconclusive [inhibitor, partial curve]",
C/C(=N\Nc1cc(C)nc(-c2ccccc2)n1)c1cccc([N+](=O)[O-])c1,"inconclusive [inhibitor, single point]",
O=C(CC1N=C2c3ccccc3N=C(SCc3cccc(F)c3)N2C1=O)NCc1cccs1 (stereo not drawn),"inconclusive [inhibitor, single point]",

SMILES,Potency,"activity change, negative = growth inhibition"
COc1cccc(NC(=O)c2oc3ccccc3c2NC(=O)c2ccccc2C)c1,"inconclusive [inhibitor, single point]",
CC(C)Nc1nc(NC(N)=S)nc(NC(C)C)n1,"inconclusive [inhibitor, single point]",
COc1ccc(NC(=O)CSc2nnc(C3CCCCC3)n2-c2ccccc2)cc1,active: 18.4 µM,
CCCC(=O)Nc1ccc(C(=O)NCCc2ccc(F)cc2)cc1,inactive,
Cc1ccc(SCC(=O)N(C)C2CCS(=O)(=O)C2)c(C)c1 (stereo not drawn),,inconclusive: -10.9% [inhibitor]
CCOC(=O)C1CCCN(C(=O)c2ccc(S(=O)(=O)Nc3ccccc3OC)cc2)C1 (stereo not drawn),"inconclusive [inhibitor, single point]",
Cn1cccc1C(=O)OCc1ccc(C(C)(C)C)cc1,"inconclusive [inhibitor, single point]",
CCOc1ccc(CNC(=O)c2ccc(CSc3nc4ccncc4n3Cc3ccc(F)cc3)cc2)cc1,"inconclusive [inhibitor, single point]",
COc1ccc(CC(=O)NCC(=O)NCc2cc(=O)n(C)c(=O)n2C)cc1,inactive,
CCCOc1ccc2c3c(c(=O)oc2c1OCCC)CCC3,active: 23.1 µM,
COc1ccccc1/C=N/NC(=O)c1ccc(CN2C(=O)c3cccc4cccc2c34)cc1,"inconclusive [inhibitor, partial curve]",
Cc1cc(C)nc(N/N=C/c2ccccc2OCc2ccccc2)n1,"inconclusive [inhibitor, single point]",
C=C(C)CN1CCN(c2ccc(N3C(=O)CCCC3=O)cc2[N+](=O)[O-])CC1,inactive,
O=C(NCCCN1CCOCC1)c1ccc(/C=C2\Oc3ccccc3N(Cc3ccccc3F)C2=O)cc1,inactive,
CCCCNC(=O)NS(=O)(=O)c1ccc(NC(=O)CCC(=O)c2cccs2)cc1,inactive,
Cc1cccc(NS(=O)(=O)c2c(C)[nH]c(C)c2C(=O)N2CCCC2)c1,inactive,
CSc1ccc(NC(=O)c2cccnc2)cc1C#N,inactive,
O=C(c1cccc(-c2nnc(-c3ccccc3)o2)c1)N1CCCCCC1,active: 14.1 µM,
COc1cccc(C(=O)Nc2ccc3nc(N4CCOCC4)cc(C)c3c2)c1,active: 20.6 µM,
CN(CC(=O)Nc1ccc(Cl)cc1)C(=O)c1ccc(COc2ccccc2)cc1,,inconclusive: -38.7% [inhibitor]
COc1ccc(S(=O)(=O)Oc2cc(C(=S)N3CCOCC3)ccc2OC)cc1,inactive,
COC(=O)c1ccccc1NC(=O)CSc1n[nH]c(CC(C)C)n1,"inconclusive [inhibitor, single point]",
OC(c1cccc(Cl)c1)c1nc(-c2csc3ccccc23)cs1 (stereo not drawn),"inconclusive [inhibitor, single point]",
O=C(COc1ccc2c3c(c(=O)oc2c1)CCCC3)N1CCN(c2ccc(F)cc2)CC1,"inconclusive [inhibitor, single point]",
Cc1cc(C)c(S(=O)(=O)Cc2ccccc2)c(Cl)n1,inactive,

SMILES,Potency,"activity change, negative = growth inhibition"
O=C(NNC(=O)c1ccc(F)c(S(=O)(=O)N2CCOCC2)c1)c1ccc(Br)cc1,inactive,
CCCCN(CCCC)CCCNC(=O)c1ccc2nc(N3CCCCC3)sc2c1,active: 23.1 µM,
CC(C)(C)c1ccc(-c2nc3c(C#N)c(-c4ccc5c(c4)OCO5)ccn3n2)cc1,active: 13 µM,
OC(COc1ccc(OCC(O)CN2CCN(Cc3ccccc3)CC2)cc1)CN1CCN(Cc2ccccc2)CC1 (stereo not drawn),"inconclusive [inhibitor, single point]",
Cc1ccc(N(C)S(=O)(=O)c2cccc(C(=O)OCC(=O)N(C)Cc3ccccc3)c2)cc1,"inconclusive [inhibitor, single point]",
COC(=O)c1cn([C@@H]2C[C@@H](C(=O)N3CCCCCC3)N(Cc3cc4ccccc4s3)C2)nn1,inactive,
Cc1nc(C(=O)NNC(=O)Nc2ccc(Cl)cc2)cs1,inactive,
COC(=O)c1sc(S(=O)(=O)N2CCN(c3ccccc3F)CC2)c(C(=O)OC)c1C,"inconclusive [inhibitor, single point]",
OC1(c2ccccc2)CNCCc2ccccc21 (stereo not drawn),inactive,
CNc1nc(NCCOc2ccccc2Cl)c2sccc2n1,active: 9.2 µM,
O=C(Cn1c(=O)c2c3c(sc2n(Cc2ccccc2)c1=O)CCCC3)NCCO,"inconclusive [inhibitor, partial curve]",
COc1ccc(C(C)(C)C)cc1NC(=O)CN(C)C1=NS(=O)(=O)c2ccccc21,"inconclusive [inhibitor, single point]",
Cc1ccc(N2N=C(c3ccc(Br)cc3)CCC2=O)cc1,"inconclusive [inhibitor, partial curve, poor fit]",
COC(=O)c1ccc(CSc2ccc3nnc(-c4ccc(F)cc4)n3n2)o1,active: 20.6 µM,
Cc1nn2c(=O)cc(COc3ccc(/C=C(\C#N)C(=O)Nc4ccccc4C)cc3)nc2s1,,inconclusive: -32.7% [inhibitor]
CC1CC(C)CN(CCCNS(=O)(=O)c2cc(Br)cc3c2N(C(=O)C2CC2)CC3)C1 (stereo not drawn),inactive,
COc1ccc2c(c1)c1c(c(=O)n(-c3cc(Cl)ccc3C)c(=O)n1CC(=O)N1CCCC1)n2C,"inconclusive [inhibitor, partial curve, poor fit]",
OCCN(CC#CCn1c2ccccc2c2ccccc21)CCO,"inconclusive [inhibitor, single point]",
Cc1c(C(=O)OC2CCC(C)CC2)[nH]c2c1C(=O)CC(c1ccc(F)cc1)C2 (stereo not drawn),active: 18.4 µM,
Cc1ccc(Sc2c(C)nn(C(C)(C)C)c2OC(=O)CC(C)C)cc1,"inconclusive [inhibitor, single point]",
CC(CCc1ccco1)NC(=O)CCc1nnc2ccc(NCc3ccc(Cl)cc3)nn12 (stereo not drawn),inactive,
CCCOc1ccc(/C=C/C(=O)N2CCN(c3ccccn3)CC2)cc1,"inconclusive [inhibitor, single point]",
Cc1cc(C)c(C)c(S(=O)(=O)NCc2ccc(C(=O)N3CCN(C)CC3)cc2)c1C,inactive,
